Experimental data from PubChem BioAssay AID1745853 (National Center for Advancing Translational Sciences (NCATS), 2022).
This is one part of the list. These are further read-outs of the screen, such as a control signal, another cell line or another target. No call is given for them.

Assays:
Assay in all cases: Primary Screen for Target Class Profiling of Small Molecule Inhibitors of Methyltransferases
[1] = target: Glycine N-methyltransferase (Homo sapiens) (UniProt Q14749); details: purified enzyme, MTase-Glo SAH luminescence; measured here: GNMT inhibition; at 40 µM; stronger effect = lower value
Procedure, shortened: (§1)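 Each enzyme was reacted with SAM and its substrate, with compounds tested once at 40 uM; SAH formed was read by MTase-Glo luminescence.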

[2] = target: Guanidinoacetate N-methyltransferase (Homo sapiens) (UniProt Q14353); details: purified enzyme, MTase-Glo SAH luminescence; measured here: GAMT inhibition; at 40 µM; stronger effect = lower value
Procedure, shortened: as §1

[3] = target: Histamine N-methyltransferase (Homo sapiens) (UniProt P50135); details: purified enzyme, MTase-Glo SAH luminescence; measured here: HNMT inhibition; at 40 µM; stronger effect = lower value
Procedure, shortened: as §1

[4] = target: Nicotinamide N-methyltransferase (Homo sapiens) (UniProt P40261); details: purified enzyme, MTase-Glo SAH luminescence; measured here: NNMT inhibition; at 40 µM; stronger effect = lower value
Procedure, shortened: as §1

[5] = target: Phenylethanolamine N-methyltransferase (Homo sapiens) (UniProt P11086); details: purified enzyme, MTase-Glo SAH luminescence; measured here: PNMT inhibition; at 40 µM; stronger effect = lower value
Procedure, shortened: as §1
On the % scale 0 is the no-effect control and ±100 the full control effect.

| SMILES | activity change, negative = inhibition [1] [%] | activity change, negative = inhibition [2] [%] | activity change, negative = inhibition [3] [%] | activity change, negative = inhibition [4] [%] | activity change, negative = inhibition [5] [%] |
| --- | --- | --- | --- | --- | --- |
| CC[C@H]1CN(C(C)=O)CC[C@H]1CC(=O)NCCOC | -2.15 | -2.73 | 0.834 | -3.96 | 2.06 |
| Cn1c(=O)c2ccc(C(=O)NC3CCCC3)cc2n2c(SCc3cccc(F)c3)nnc12 | -9.37 | -3.23 | -9.07 | -3.94 | -5.87 |
| O=C(CN1C(=O)C2(CCCCC2)C1c1ccccc1)NCCc1c[nH]c2ccccc12 (stereo not given) | -12.2 | 2.98 | -5.77 | -12 | 0.633 |
| Cc1ccc(CN2C(=O)c3ccc(-c4ccccc4)n3CC2(C)C(=O)NC2CCCCCCC2)cc1 (stereo not given) | -4.16 | -0.966 | -10.3 | -17.1 | -8.42 |
| CNCCC(c1cccs1)c1ccc(O)c2ccccc12 (stereo not given) | 3.32 | 11.8 | -80.3 | -15 | -2.25 |
| CC(C)n1c(=O)c2ccc(C(=O)NC3CCCC3)cc2n2c(=O)n(Cc3ccc(F)cc3)nc12 | -1.87 | 0 | 5.71 | 2.73 | 3.41 |
| Cc1cccc(CN2C(=O)c3ccc(-c4ccccc4)n3CC2(C)C(=O)NC2CCCCC2)c1 (stereo not given) | -0.491 | 3.74 | -0.359 | 0.955 | -0.408 |
| CN(CC(=O)N1CCCC1)S(=O)(=O)c1ccc2[nH]c3c(c2c1)CCCC3 | -11.5 | -2.69 | -3.73 | -3.25 | -4.51 |
| CNC(=O)c1c(-c2ccc(F)cc2)oc2cc(N(CCO)S(C)(=O)=O)c(C3CC3)cc12 | 4.74 | 1.29 | 7.76 | -8 | -2.05 |
| Cc1cc(C)c2[nH]c(C(=O)N(C)Cc3ccccc3-n3cccn3)c(C)c2c1 | 0.293 | -4.22 | -3.02 | -8.77 | -5.46 |
| C[C@](N)(Cc1ccc(O)cc1)C(=O)O | -3.3 | 7.42 | 5.44 | -7.27 | -5.11 |
| CC1(C(=O)NC2CCCC2)Cn2c(cc3sccc32)C(=O)N1CCCc1ccccc1 (stereo not given) | -1.81 | 4.55 | -4.04 | -5.13 | -4.5 |
| CCCSCCCN1C(=O)c2cc3ccc(OC)cc3n2CC1(C)C(=O)NC1CCCCC1 (stereo not given) | 1.15 | 4.8 | 1.36 | 2.58 | -3.79 |
| Cc1cccc(N2CCN(C(=O)C3c4ccccc4CC(=O)N3C)CC2)c1C (stereo not given) | -8.97 | -12 | -6.45 | -20.2 | -11.1 |
| CC(C)CCN1C(=O)c2cc3sccc3n2CC1(C)C(=O)NC1CCCCCC1 (stereo not given) | -4.37 | 3.65 | 2.23 | 1.62 | -3.22 |
| O=C(c1ccc(C(F)(F)F)cc1)N1CCCC2(C1)C(=NC1CCCC1)NC(=O)N2c1cccnc1 (stereo not given) | -3.97 | -7.25 | -1.95 | -8.14 | -3.82 |
| CCCS(=O)(=O)N1CC[C@H]2NC(=O)N(c3ccc(F)cc3)C(=O)[C@H]21 | -3.43 | -5.91 | -1.72 | -7.46 | -3.27 |
